The source of these data is ChEMBL document CHEMBL1961873, “Compounds: GSK PKIS; Assays: Nanosyn kinase panel” (2012).

Experiment [1] concerns the target T1, Serine/threonine-protein kinase Nek9 (Homo sapiens) (UniProt Q8TD19).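 Further: each value is a mean percent inhibition of NEK9.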
T1 sequence (whole entry): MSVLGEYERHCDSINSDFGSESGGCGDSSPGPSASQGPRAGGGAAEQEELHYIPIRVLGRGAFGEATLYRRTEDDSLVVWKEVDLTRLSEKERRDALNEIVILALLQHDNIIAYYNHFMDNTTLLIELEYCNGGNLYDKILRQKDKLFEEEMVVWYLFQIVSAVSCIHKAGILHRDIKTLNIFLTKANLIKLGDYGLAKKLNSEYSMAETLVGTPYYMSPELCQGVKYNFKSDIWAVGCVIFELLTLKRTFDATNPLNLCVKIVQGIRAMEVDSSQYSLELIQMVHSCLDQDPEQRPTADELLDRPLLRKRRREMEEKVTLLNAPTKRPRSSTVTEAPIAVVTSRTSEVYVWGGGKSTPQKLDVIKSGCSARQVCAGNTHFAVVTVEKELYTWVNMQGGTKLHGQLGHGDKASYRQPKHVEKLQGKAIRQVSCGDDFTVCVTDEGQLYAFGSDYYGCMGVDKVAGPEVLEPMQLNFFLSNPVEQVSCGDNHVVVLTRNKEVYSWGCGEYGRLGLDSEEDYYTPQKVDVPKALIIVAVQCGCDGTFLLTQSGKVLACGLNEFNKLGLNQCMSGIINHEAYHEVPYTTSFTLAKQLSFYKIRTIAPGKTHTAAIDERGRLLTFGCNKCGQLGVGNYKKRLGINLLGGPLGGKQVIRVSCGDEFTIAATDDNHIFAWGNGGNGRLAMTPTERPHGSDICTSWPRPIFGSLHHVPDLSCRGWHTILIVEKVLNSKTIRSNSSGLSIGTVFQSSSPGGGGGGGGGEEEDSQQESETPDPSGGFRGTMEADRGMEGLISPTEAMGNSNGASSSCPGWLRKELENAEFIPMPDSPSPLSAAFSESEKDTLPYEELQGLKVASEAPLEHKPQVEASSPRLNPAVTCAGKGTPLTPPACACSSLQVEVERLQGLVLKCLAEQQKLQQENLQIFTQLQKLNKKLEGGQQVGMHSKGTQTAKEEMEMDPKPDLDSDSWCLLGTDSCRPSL
Conditions: at 1 µM.

Experiment [2] concerns the target Serine/threonine-protein kinase PLK1 (Homo sapiens) (UniProt P53350). Conditions: at 0.1 µM.
Experiment [3] has the same target. Conditions: at 1 µM.
Experiment [4] addresses T2, Dual specificity protein kinase TTK (Homo sapiens) (UniProt P33981).
T2 sequence (whole entry): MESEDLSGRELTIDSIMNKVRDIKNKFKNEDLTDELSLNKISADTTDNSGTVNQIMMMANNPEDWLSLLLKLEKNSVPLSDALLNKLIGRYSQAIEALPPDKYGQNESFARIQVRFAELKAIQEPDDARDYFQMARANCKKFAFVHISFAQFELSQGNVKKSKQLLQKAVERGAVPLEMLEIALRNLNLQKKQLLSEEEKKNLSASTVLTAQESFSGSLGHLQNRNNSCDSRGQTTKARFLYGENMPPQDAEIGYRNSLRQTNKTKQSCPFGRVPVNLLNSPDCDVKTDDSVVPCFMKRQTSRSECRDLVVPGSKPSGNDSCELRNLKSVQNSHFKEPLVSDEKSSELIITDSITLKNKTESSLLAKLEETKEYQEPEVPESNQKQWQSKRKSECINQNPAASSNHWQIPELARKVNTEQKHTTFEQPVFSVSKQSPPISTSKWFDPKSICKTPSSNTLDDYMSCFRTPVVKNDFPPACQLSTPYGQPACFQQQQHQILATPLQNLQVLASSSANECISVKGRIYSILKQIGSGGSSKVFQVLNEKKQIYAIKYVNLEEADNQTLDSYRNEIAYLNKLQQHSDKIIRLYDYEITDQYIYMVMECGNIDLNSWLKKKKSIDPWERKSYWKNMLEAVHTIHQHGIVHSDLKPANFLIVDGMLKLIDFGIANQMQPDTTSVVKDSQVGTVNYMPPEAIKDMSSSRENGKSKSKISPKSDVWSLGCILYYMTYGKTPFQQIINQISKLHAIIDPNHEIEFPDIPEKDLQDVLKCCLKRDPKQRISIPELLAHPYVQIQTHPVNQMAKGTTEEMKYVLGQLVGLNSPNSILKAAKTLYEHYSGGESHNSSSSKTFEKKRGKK
Conditions: at 0.1 µM.

Experiment [5] has as its system T3, Receptor-type tyrosine-protein kinase FLT3 (Homo sapiens), P36888 [D835Y].
T3 sequence (whole entry): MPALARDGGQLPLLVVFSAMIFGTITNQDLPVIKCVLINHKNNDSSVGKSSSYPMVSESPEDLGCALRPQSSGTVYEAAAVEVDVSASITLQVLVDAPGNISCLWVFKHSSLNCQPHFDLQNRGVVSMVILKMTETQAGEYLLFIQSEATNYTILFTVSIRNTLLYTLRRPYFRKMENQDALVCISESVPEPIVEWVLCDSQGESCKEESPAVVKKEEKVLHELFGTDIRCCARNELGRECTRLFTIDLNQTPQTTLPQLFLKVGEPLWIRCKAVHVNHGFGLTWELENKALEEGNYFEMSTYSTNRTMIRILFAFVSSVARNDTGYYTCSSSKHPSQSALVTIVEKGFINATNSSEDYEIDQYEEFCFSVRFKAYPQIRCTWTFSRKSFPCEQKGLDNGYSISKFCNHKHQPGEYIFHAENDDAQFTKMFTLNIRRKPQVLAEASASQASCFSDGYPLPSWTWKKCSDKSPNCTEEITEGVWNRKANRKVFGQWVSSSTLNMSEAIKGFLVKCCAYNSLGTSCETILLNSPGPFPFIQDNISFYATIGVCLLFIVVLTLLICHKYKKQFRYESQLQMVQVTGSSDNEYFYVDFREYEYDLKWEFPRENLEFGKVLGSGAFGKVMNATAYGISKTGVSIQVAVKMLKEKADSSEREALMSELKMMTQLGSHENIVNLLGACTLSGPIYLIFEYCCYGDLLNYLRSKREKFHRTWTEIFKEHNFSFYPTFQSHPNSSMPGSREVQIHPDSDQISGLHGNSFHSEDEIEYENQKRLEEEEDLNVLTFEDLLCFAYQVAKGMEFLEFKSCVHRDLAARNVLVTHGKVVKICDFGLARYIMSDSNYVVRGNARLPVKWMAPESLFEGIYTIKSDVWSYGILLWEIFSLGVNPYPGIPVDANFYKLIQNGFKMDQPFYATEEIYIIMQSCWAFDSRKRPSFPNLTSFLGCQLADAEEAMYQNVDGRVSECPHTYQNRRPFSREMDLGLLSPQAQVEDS
To be noted: at 1 µM.

Experiment [6] has as its target Vascular endothelial growth factor receptor 3 (Homo sapiens) (UniProt P35916). Conditions: at 0.1 µM.
UniProt P35916, sequence (P35916 whole entry): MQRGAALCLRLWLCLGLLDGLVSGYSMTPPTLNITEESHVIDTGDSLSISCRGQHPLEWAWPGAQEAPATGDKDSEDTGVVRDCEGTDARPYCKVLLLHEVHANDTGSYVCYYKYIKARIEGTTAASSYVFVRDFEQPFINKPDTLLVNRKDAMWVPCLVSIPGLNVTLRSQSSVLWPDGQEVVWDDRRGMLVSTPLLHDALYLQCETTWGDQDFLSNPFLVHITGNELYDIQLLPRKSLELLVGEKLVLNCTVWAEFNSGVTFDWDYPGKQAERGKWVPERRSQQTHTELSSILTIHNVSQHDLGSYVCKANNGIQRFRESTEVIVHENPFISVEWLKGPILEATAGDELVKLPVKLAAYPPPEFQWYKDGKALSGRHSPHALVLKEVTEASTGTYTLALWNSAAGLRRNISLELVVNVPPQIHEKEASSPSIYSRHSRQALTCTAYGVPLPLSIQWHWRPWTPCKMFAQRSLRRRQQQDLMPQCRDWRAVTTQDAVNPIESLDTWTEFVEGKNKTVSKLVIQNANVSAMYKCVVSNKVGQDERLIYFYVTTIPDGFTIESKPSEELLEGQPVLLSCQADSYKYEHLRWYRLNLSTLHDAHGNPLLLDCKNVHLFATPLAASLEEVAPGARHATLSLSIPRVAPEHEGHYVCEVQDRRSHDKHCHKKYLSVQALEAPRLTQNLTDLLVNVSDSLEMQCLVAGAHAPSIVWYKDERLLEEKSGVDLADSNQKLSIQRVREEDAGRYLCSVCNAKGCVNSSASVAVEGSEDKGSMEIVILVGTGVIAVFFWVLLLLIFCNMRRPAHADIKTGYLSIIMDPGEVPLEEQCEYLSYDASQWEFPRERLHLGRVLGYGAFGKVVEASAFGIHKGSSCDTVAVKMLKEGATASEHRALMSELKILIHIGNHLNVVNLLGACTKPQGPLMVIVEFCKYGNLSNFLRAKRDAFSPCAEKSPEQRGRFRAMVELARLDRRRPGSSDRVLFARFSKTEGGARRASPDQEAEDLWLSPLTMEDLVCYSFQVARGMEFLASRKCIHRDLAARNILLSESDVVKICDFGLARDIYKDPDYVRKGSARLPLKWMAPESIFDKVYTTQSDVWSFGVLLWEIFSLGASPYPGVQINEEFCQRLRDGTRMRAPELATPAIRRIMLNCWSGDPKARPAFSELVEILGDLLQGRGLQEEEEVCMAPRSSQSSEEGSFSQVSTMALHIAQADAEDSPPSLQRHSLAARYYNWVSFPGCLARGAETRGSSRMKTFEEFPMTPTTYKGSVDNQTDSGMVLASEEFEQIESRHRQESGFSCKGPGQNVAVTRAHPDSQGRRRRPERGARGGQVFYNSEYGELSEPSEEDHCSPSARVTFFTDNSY
Experiment [7] has the same target. To be noted: at 1 µM.
Experiment [8] concerns the target Macrophage colony-stimulating factor 1 receptor (Homo sapiens) (UniProt P07333). Conditions: at 0.1 µM.
UniProt P07333, sequence (P07333 whole entry): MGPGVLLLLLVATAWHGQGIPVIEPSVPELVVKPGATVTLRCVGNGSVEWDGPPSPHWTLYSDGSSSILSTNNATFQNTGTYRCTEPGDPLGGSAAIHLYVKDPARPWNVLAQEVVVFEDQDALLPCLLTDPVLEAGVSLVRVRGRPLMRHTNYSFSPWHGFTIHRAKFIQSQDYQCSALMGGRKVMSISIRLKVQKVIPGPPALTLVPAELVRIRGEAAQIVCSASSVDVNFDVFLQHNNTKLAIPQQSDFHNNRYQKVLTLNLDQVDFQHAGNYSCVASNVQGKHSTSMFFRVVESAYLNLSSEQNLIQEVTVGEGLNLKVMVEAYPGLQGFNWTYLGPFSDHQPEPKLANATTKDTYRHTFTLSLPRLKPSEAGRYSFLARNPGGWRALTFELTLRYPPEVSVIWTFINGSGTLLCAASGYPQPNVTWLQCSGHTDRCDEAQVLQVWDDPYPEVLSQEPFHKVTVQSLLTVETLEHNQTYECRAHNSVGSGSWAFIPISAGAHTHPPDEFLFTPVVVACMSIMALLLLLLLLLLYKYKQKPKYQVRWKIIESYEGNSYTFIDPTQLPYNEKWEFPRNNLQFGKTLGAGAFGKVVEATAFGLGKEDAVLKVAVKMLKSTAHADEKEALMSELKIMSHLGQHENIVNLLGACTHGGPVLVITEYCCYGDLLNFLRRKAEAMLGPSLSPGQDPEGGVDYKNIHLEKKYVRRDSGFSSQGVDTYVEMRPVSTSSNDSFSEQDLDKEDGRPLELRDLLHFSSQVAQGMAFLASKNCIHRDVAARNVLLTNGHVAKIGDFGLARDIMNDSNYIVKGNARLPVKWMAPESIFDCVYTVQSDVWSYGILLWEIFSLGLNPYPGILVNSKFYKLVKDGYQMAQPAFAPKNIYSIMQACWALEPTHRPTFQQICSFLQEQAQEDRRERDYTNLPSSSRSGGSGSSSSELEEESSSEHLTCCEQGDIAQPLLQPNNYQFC
For experiment [9] the target is unchanged. To be noted: at 1 µM.
Experiment [10] concerns the target Tyrosine-protein kinase Fyn (Homo sapiens) (UniProt P06241). To be noted: at 0.1 µM.
Experiment [11] has the same target. To be noted: at 1 µM.
For experiment [12], the target named is Tyrosine-protein kinase HCK (Homo sapiens) (UniProt P08631). Conditions: at 0.1 µM.
Experiment [13] has the same target. Conditions: at 1 µM.
Experiment [14] has as its target Insulin-like growth factor 1 receptor (Homo sapiens) (UniProt P08069). To be noted: at 0.1 µM.
Experiment [15] has the same target. To be noted: at 1 µM.
Experiment [16] has as its target Insulin receptor (Homo sapiens) (UniProt P06213). Conditions: at 0.1 µM.
UniProt P06213, sequence (P06213 whole entry): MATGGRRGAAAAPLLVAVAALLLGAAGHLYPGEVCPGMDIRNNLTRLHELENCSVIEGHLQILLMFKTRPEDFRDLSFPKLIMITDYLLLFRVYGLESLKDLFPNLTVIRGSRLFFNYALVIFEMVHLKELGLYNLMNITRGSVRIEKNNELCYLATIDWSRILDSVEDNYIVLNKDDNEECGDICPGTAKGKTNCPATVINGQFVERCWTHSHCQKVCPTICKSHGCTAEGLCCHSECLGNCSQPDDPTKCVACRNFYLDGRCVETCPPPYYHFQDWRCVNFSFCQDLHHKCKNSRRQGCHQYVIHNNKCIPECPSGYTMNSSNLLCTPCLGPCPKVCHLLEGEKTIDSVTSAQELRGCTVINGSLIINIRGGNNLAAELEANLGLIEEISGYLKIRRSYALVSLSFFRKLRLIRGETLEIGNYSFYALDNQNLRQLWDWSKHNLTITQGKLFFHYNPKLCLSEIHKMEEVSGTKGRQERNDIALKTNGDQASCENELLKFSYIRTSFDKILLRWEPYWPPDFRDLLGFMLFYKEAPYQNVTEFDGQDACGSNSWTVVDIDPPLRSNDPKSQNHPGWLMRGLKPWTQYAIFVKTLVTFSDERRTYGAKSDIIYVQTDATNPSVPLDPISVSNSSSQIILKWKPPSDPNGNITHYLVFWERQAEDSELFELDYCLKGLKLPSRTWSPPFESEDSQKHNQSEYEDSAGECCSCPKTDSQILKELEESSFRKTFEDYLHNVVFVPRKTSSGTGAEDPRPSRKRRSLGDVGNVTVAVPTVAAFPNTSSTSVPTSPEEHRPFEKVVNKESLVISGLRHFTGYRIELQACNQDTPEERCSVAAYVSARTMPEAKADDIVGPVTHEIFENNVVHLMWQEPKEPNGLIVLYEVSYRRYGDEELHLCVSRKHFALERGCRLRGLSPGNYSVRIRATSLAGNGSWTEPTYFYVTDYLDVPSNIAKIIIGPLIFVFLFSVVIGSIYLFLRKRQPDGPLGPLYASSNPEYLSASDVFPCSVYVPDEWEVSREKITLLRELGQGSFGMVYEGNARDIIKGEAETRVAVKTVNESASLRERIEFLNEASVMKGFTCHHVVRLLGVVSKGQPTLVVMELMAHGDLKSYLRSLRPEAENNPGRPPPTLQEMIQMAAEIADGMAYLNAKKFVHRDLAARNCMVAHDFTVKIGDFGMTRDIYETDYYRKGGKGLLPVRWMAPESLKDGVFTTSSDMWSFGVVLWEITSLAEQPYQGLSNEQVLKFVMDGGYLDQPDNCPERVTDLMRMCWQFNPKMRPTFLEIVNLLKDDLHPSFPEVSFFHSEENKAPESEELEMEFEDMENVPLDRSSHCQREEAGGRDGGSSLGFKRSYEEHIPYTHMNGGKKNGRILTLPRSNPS
Experiment [17] has the same target. To be noted: at 1 µM.
The target in experiment [18] is Insulin receptor-related protein (Homo sapiens) (UniProt P14616). To be noted: at 0.1 µM.
UniProt P14616, sequence (P14616 whole entry): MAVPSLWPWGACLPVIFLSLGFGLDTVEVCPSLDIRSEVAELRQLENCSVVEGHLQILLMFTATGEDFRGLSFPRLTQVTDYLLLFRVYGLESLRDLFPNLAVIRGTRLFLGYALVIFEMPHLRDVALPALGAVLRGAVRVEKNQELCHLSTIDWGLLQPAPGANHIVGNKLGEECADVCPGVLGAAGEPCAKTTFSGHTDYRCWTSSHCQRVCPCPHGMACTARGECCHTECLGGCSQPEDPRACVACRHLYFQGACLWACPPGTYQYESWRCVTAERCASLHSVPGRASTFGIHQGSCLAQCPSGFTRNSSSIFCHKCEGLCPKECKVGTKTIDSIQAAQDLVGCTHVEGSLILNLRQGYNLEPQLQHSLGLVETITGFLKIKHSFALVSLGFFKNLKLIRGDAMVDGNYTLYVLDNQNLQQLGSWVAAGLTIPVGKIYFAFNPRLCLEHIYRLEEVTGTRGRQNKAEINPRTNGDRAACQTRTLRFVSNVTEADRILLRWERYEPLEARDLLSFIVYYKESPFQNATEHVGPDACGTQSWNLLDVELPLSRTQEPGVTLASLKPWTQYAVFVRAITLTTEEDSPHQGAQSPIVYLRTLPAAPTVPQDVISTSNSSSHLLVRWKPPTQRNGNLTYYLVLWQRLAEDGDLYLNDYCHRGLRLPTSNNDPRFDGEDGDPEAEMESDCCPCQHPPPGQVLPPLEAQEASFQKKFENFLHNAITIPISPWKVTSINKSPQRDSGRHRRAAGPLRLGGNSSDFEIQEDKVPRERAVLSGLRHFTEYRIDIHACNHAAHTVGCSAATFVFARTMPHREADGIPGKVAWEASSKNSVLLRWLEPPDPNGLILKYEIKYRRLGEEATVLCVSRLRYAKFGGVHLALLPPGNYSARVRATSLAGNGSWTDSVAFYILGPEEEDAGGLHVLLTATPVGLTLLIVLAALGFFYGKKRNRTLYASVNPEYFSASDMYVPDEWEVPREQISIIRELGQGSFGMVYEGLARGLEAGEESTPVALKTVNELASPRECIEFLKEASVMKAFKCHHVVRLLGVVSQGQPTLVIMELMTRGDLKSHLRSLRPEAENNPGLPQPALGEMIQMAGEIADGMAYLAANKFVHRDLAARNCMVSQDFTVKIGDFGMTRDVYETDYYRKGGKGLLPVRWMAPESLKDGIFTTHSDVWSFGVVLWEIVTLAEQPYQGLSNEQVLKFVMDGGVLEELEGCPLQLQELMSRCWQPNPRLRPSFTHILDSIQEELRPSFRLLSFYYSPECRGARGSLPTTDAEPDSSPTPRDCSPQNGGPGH
The target is the same in experiment [19]. Conditions: at 1 µM.
Experiment [20] addresses T4, Tyrosine-protein kinase ITK/TSK (Homo sapiens) (UniProt Q08881).
T4 sequence (whole entry): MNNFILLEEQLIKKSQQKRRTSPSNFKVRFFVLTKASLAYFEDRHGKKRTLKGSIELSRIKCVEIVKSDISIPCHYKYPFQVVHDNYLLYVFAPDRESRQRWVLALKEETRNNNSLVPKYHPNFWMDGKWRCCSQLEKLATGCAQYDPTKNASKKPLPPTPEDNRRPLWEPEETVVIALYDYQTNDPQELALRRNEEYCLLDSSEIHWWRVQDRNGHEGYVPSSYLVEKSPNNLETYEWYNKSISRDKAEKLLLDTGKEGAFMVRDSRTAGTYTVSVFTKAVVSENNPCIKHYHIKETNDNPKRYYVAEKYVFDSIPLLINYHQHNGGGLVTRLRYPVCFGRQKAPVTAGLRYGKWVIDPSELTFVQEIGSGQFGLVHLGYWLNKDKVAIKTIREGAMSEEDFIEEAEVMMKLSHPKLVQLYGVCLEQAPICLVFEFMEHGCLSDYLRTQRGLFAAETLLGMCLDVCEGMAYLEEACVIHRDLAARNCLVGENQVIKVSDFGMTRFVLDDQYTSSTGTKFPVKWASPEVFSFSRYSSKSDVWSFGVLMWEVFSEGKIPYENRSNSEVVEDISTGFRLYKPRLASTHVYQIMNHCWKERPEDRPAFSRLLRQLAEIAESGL
To be noted: at 0.1 µM.

For part of these data: Shown are results outside the selection of strong results, which stands elsewhere. Only a part is listed here, and it is no random draw.

Broadly, the inhibition is the relative decrease from the control value, in per cent. As for `Cc1cccc(Oc2nccc(-c3c(-c4ccc(F)cc4)ncn3C3CCNCC3)n2)c1C`, the inhibition in experiment [1] came to 5.85%; in [2], 3.27%; in experiment [3], 3.1%; in experiment [4] it was 6.84%; in experiment [5], 2.26%; in experiment [6], 0.75%. The inhibition was 2.35% in experiment [7]; -3.93% in experiment [8]; 3.13% in experiment [9]; -0.04% in [10]; 3.47% in [11]; 3.08% in [12]. Moreover, the inhibition in [13] came out at 3.84%; in experiment [14], 0.76%; in [15], 2.84%; in experiment [16] it was 0.19%; in experiment [17], 1.99%; in [18] it was 2.53%. Moreover, the inhibition in experiment [19] is 3.84%; in [20], -0.05%.
Turning to `NC(=O)CCc1ccccc1Oc1nccc(-c2c(-c3ccc(F)cc3)ncn2C2CCNCC2)n1`, the inhibition was 2.86% in [1]; -0.62% in experiment [2]; 1.09% in [3]; 2.26% in [4]; 1.87% in [5]; 0.39% in [6]. The inhibition in [7] was 3.67%; in [8] it was -3.35%; in [9], -0.19%; in experiment [10], 0.6%; in experiment [11], 3.29%; in [12], -2.31%. For the same compound, the inhibition is -1.38% in experiment [13]; 0.52% in experiment [14]; 1.3% in experiment [15]; 2.72% in experiment [16]; -2.14% in [17]; -3.71% in experiment [18]. Also, the inhibition in [19] was -1.88%; in experiment [20], -0.54%.
For the compound `Fc1ccc(-c2ncn(C3CCNCC3)c2-c2ccnc(Oc3ccc(Cl)cc3)n2)cc1`, the inhibition worked out at 3.47% in experiment [1]; 2.53% in [2]; 2.24% in [3]; 3.26% in experiment [4]; 3.27% in [5]; 0.25% in experiment [6]. Also, the inhibition in experiment [7] was 1.05%; in [8], -2.07%; in experiment [9], 0.01%; in [10] it was 1.88%; in experiment [11], 3.05%; in [12], 1.04%. Besides, the inhibition was -0.6% in [13]; -0.68% in experiment [14]; 5.66% in experiment [15]; 2.85% in experiment [17]; -1.44% in [18]; -1.6% in experiment [19]. Also, in [20], the inhibition turned out to be 0.41%.
For `CS(=O)(=O)c1ccc(Oc2nccc(-c3c(-c4ccc(F)cc4)ncn3C3CCNCC3)n2)cc1`, the inhibition was 7.01% in experiment [1]; 4.11% in experiment [2]; 3.44% in [3]; 9.5% in experiment [4]; -0.77% in experiment [6]; -3.12% in experiment [7]. Moreover, the inhibition in experiment [8] is -1.87%; in [9], 3.3%; in experiment [10] it was -0.5%; in experiment [11] it was 2.24%; in experiment [12] it was 5.46%; in [13], 4.56%. The inhibition was -0.62% in experiment [14]; 1.08% in [15]; 1.11% in [16]; 4.54% in experiment [17]; 2.47% in experiment [18]; 2.71% in experiment [19]. In experiment [20], the inhibition is -0.93%.
